# Results published in ChEMBL document CHEMBL4888484, “Replenishing the malaria drug discovery pipeline: Screening and hit evaluation of the MMV Hit Generation Library 1 (HGL1) against asexual blood stage Plasmodium falciparum ,using a nano luciferase reporter read-out” (2022).
# Among all 150,000 compounds or so, about 540 (0.36%) showed an effect of 50% or more. This is one part of the list.
# Test system: Plasmodium falciparum
# Test: Primary screen in NF54 nanoGlo assay, in single point, at 2uM, 72h; a lower Z score goes with more inhibition
# Format: functional, Erythrocyte
# Conditions: timepoint 72 hour
Compound,% Inhibition [%],Z score
O=C(Nc1ccc(-c2ccccn2)cc1)N1CCC[C@@]2(CCS(=O)(=O)C2)C1,5,-0.38
CCOC(=O)N1CCN(C(=O)CC[C@@H](C)[C@H]2CC[C@H]3[C@@H]4CC[C@@H]5C[C@H](O)CC[C@]5(C)[C@H]4C[C@H](O)[C@]23C)CC1,6,-0.99
Cc1cccc(CN(Cc2cocn2)Cc2cocn2)n1,-8,1.25
CC(CCc1cccn1C)NC(=O)N1CCCC(Cn2ccnn2)C1 (configuration not stated),-3,0.41
Cc1cn2cc(C(=O)N3CCC(F)(F)CC3)ccc2n1,-16,1.88
CN1N=C(C(=O)N[C@H](c2ccc(F)cc2)c2ncc[nH]2)CCC1=O,7,-1.21
O=C(Cc1csc(Cc2cccc(Cl)c2)n1)Nc1ccc2oc(C(F)(F)F)nc2c1,9,-1.76
COC(=O)c1c(NC(=O)c2ccccc2)c2cc(NCc3ccc(F)c(F)c3)cnc2n1C[C@H]1CCCO1,-2,0.32
CCc1nc(N2CCC3(CC2)C[C@@H](c2ccccc2)C(=O)N(CC)C3)no1,-6,1.23
Cc1ccc(CCNC(=O)NCc2ccoc2C)cn1,3,-0.35
COC[C@@]12CN(C(C)=O)CC[C@@H]1CN(C(=O)COc1cccc(C)c1)C2,-17,1.98
Cc1ccc(-c2nc3cccnc3n2CCCNC(=O)Nc2ccc(Br)cc2)cc1,-6,0.57
COc1cccc(-c2ccc(N3CCN(C(=O)CN(Cc4ccc(F)cc4)C(=O)c4ccco4)CC3)nn2)c1,-12,2.01
O=C(NCc1ccncc1)c1csc(COc2ccc(F)cc2F)n1,-4,0.71
O=C(NCC1COC1)c1cnc(-c2cccnc2)s1,-2,0.23
COCC1CCC(N[C@@H](C)c2nc(C(F)(F)F)no2)CC1 (some centres not stated),-3,0.37
COCc1nc([C@@H]2CCCCCN2C(=O)Nc2cccc(C#N)c2)no1,-9,1.15
COC(=O)Cn1c(=O)n(-c2ccccc2)c(=O)n1CC(=O)OC,1,-0.1
O=S(=O)(Nc1nncs1)c1cc(Cl)sc1Cl,-6,0.65
CN(C(=O)C1(n2cnnn2)CCOCC1)c1nc2c(Cl)cccc2s1,-9,1.1
COc1ccc(C2CC(C)N(C(=O)C(C)NS(C)(=O)=O)C2)cc1 (configuration not stated),-13,1.17
COc1ccc(OC)c([C@H](C)NC(=O)N2CCS(=O)(=O)CC2)c1,41,-5.3
CCS(=O)(=O)N1CC(=O)N(c2ccc(C)c(Cl)c2)[C@](C)(C(=O)NC2CCCCCC2)C1,-13,1.81
Cc1ccc(NC(=O)[C@@]2(CCO)CCN(c3ncccn3)C2)cc1,-10,1.81
COc1ccc([C@@H](NC(=O)N2CCC(c3nc4ccccc4n3C)CC2)C(C)C)cc1OC,-5,0.7
O=C(Nc1cnn(-c2ncc(N3CCCCC3)cn2)c1)c1cccnc1,-6,0.9

Compound,% Inhibition [%],Z score
O=C(Cn1c(=O)n(CC(=O)NC2CCCC2)c(=O)c2ccccc21)Nc1cc(Cl)cc(Cl)c1,-1,0.13
Fc1ccc(-c2nc([C@@]3(CC4CC4)CCCNC3)no2)cc1,2,-0.38
CC(C)CN1CCN(C(=O)c2ccccc2-n2cncn2)[C@@H](C)C1=O,-1,0.24
Cc1c([C@@H](NCc2ncccc2O)C(C)C)oc2ccccc12,97,-8.67
O=C(Nc1snc2ccccc12)[C@H]1CCS(=O)(=O)C1,0,-0.02
CCN(CC)CCN(C)C(=O)c1cnn(-c2nccc(-c3ccccc3OC)n2)c1-c1ccco1,-2,0.24
O=C(CCn1cncn1)Nc1cc(C2CCCCCC2)[nH]n1,-9,0.77
O=C(Nc1ccccn1)c1cc(=O)c(OCc2ccc(Cl)cc2)c[nH]1,-13,1.66
C#CCCC1(CCC(=O)N2CC(OCC(F)F)C2)N=N1,0,0.06
Cc1nn(-c2ccc(C(=O)N3CCOCC3)cc2)c2c1C(=O)CCC2,-15,1.36
CCn1ncc(-c2noc3nc(C4CC4)cc(C(=O)Nc4c(C)noc4C)c23)c1C,30,-3.39
Cc1ccc(O)c(CCc2ccc(O)cc2)n1,0,0.04
c1ccc(CN2CCN(Cc3cccc(Oc4ccccc4)c3)CC2)cc1,-1,0.2
CC(C)[C@@H](C(=O)Nc1ccc(N(C)C)cc1)N(Cc1ccccc1)C(=O)CN1C(=O)C(=O)c2ccccc21,32,-3.65
COc1ccc(NC(=O)c2ccc(Cn3cnc4c3c(=O)n(C)c(=O)n4C)cc2)cc1,-11,2.11
O=C1c2ccccc2C(=O)N1c1ncc(Cc2ccccc2Cl)s1,-7,0.87
CCOC(=O)CN1C(=O)C(F)(F)c2cc(NCc3c(C)noc3C)ccc21,14,-1.41
CCc1noc(C)c1NS(=O)(=O)CCCC(F)(F)F,-1,0.08
CCc1c(C)cc(C(=O)N[C@@H]2COCC[C@@H]2OCC=C(C)C)c(=O)n1C,-4,0.93
CCc1ccc(NC(=O)N2C[C@H](O)[C@@H](F)C2)cc1,4,-0.39
CCOC(=O)CNC(=O)N1CCN(S(=O)(=O)c2ccc3c(ccn3C)c2)CC1,2,-0.3
CC(=O)N1CC2=Nc3cccc4c3c(cn4CCC(C)C)[C@H](c3c(F)cccc3Cl)C2=C1O,0,-0.03
CCCn1nnc(NC(=O)c2cccs2)n1,7,-0.87
Cc1nc(-c2ccccc2NC(=O)NCCOc2ccccc2)cs1,-7,1.33
Cc1cc(-c2noc(CCC(=O)N3CCC(c4nncn4C)CC3)n2)ccc1F,-9,1.51
